Data taken from publication PMC4336329 (PLoS ONE, 2015).
The whole screen tested about 310,000 compounds, of which about 14,000 (4.5%) showed an effect of 50% or more. The effect is printed as a negative number. This is one part of the list.

What follows are molecules tested against human ether-à-go-go-related gene (hERG) potassium channel (human, UniProt Q12809) (assay: primary screen, population patch clamp on CHO cells stably expressing hERG).
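Note: peak tail current of the secondary pulse compared with the same well before compound.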

Sequence of human ether-à-go-go-related gene (hERG) potassium channel (Q12809 whole entry, looked up): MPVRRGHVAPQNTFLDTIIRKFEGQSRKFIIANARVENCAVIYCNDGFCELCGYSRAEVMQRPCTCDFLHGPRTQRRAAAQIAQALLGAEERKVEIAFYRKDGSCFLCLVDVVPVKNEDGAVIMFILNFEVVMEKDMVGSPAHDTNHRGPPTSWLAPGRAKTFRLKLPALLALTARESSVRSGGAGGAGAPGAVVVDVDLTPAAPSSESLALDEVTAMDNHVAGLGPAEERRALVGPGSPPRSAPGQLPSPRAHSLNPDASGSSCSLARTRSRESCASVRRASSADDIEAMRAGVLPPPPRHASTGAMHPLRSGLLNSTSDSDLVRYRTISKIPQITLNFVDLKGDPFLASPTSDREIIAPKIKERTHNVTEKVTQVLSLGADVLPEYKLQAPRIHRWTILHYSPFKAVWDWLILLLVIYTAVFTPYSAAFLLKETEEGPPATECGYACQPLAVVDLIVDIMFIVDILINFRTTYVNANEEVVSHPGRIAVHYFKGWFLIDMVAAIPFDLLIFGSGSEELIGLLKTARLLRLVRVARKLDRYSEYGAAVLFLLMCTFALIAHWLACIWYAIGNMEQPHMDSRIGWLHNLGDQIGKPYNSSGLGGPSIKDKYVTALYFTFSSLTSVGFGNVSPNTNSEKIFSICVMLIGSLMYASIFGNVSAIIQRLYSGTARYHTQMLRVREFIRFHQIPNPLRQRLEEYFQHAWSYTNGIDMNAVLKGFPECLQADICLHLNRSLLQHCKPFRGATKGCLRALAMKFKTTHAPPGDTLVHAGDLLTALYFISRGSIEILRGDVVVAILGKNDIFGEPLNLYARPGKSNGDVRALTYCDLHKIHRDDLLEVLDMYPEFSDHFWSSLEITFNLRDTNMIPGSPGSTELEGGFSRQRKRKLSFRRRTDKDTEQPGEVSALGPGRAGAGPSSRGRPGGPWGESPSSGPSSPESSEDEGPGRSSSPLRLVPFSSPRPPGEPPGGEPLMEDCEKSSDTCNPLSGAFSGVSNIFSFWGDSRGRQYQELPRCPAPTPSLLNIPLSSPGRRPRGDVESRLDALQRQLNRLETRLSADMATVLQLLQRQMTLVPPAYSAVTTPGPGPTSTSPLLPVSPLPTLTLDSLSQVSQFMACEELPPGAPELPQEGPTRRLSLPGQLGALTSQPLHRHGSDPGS

| SMILES | hERG current change (%, negative = inhibition) at 10uM [%] |
| --- | --- |
| COc1ccc(-n2c(SC3CCOC3=O)nc3ccccc3c2=O)cc1Cl (centres unmarked) | -18.7 |
| Cc1ccc(S(=O)(=O)NN2C(=O)/C(=C/c3ccc(F)cc3)SC2=S)cc1 | 5.44 |
| O=C(CN1CCN(Cc2ccccc2)CC1)N/N=C/c1ccco1 | -5.43 |
| CCN(CC)C(=O)CCCSc1nnc(Nc2ccccc2F)s1 | -23.1 |
| CCOC(=O)c1cc(CC)sc1NC(=O)c1cc(OCC)c(OCC)c(OCC)c1 | 8.61 |
| COc1ccc(S(=O)(=O)NCC2CCC(C(=O)NCCC(C)C)CC2)cc1 (centres unmarked) | 3.43 |
| O=[N+]([O-])c1ccc(-n2cc(-c3ccccc3)nn2)cc1 | -29.4 |
| Cc1ccc(C2=NOC(C)(c3nnc(Cc4ccccc4)o3)C2)cc1 (centres unmarked) | -15.2 |
| COc1ccc(-c2cc(C(=O)NCCc3ccccc3)no2)cc1OC | 18.5 |
| COc1c(C)c2c(c(O)c1C/C=C(\C)CCC(=O)O)C(=O)OC2 | 14.7 |
| CC(C)N1C(=O)C2C(C(=O)NC3CCCCC3)C3C=CC2(O3)C1C(=O)NC1CCCCC1 (centres unmarked) | 1.37 |
| CC(C)c1cc(CN2CCN(Cc3ccc(F)c(F)c3)C(CCO)C2)[nH]n1 (centres unmarked) | -52.4 |
| CCCCCCC(=O)N=Nc1c(O)[nH]c2ccc([N+](=O)[O-])cc12 | 7.11 |
| OC(COC(c1ccccc1)c1ccccc1)CN1CCCCC1 (centres unmarked) | -62.9 |
| O=C(COc1ccc(S(=O)(=O)N2CCOCC2)cc1)N1CCN(Cc2ccc3c(c2)OCO3)CC1 | -10 |
| Clc1ccc(C2Nc3cccc4cccc(c34)N2)cc1Cl | 24.8 |
| COc1ccc2[nH]cc(CCN=C3SCC(=O)N3C)c2c1 | 13.9 |
| O=C(O)C1C2C=CC(C2)C1C(=O)NCc1ccc(Cl)c(Cl)c1 (centres unmarked) | 21.6 |
| FC(F)(F)c1nnc(-c2ccccc2)nc1N1CCCC1 | 17.2 |
| C=CCn1c(=NC(=O)C2COc3ccccc3O2)sc2cccc(OC)c21 (centres unmarked) | 21.2 |
| COc1cc(CNC(C)c2ccccc2)c(Br)cc1OCC(N)=O (centres unmarked) | -17.2 |
| COc1cc(/C=C2\CCC(C3CCCC3)C2=O)cc(OC)c1OC (centres unmarked) | 9.98 |

| SMILES | hERG current change (%, negative = inhibition) at 10uM [%] |
| --- | --- |
| O=C(NC(=S)N1CCN(c2ccc([N+](=O)[O-])cc2)CC1)c1ccccc1F | -25.8 |
| COc1ccc(-c2cn3c(C)c(C(=O)Nc4cc(NC(C)=O)ccc4OC)sc3n2)cc1 | 4.22 |
| COc1ccc(CCNC(=O)C2CC(c3ccccc3F)=NO2)cc1 (centres unmarked) | -8.86 |
| O=C(OCC(=O)N1CCN(C(=O)c2ccco2)CC1)c1cncc(Br)c1 | 0.568 |
| CCOC(=O)C1=C(CN2c3ccccc3CC2C)NC(=O)NC1c1ccccc1 (centres unmarked) | -12.4 |
| O=c1[nH]c(Nc2ccc3c(c2)OCCO3)nnc1Cc1ccccc1 | 12 |
| Clc1ccc(-c2noc(CN3CCCC3)n2)cc1 | -15.1 |
| CC(=O)Nc1nc(N(C)C)nc(N(C)C)n1 | 62.4 |
| CCOC(=O)C1CCN(c2c(NC3CCCc4ccccc43)c(=O)c2=O)CC1 (centres unmarked) | -33.5 |
| COc1ccccc1NC(=O)c1c(NC(=O)c2ccco2)sc2c1CCC2 | 1.12 |
| CN(C)c1ccc(N=Nc2cccc(F)c2)cc1 | 0.778 |
| CN(NC1OC(=O)c2ccccc21)c1ncc(Cl)cc1C(F)(F)F (centres unmarked) | 23.3 |
| Cc1cc(Br)ccc1SCC(=O)N1CCN(S(=O)(=O)c2ccccc2)CC1 | -5.23 |
| O=C(COC(=O)c1cc(=O)c2ccccc2o1)Nc1ccc2ccccc2c1 | 17.6 |
| CC(C)(C)S(=O)(=O)c1cnc(N2CCOCC2)nc1N | 3.68 |
| c1ccc2cc3[nH]c(CN4CCCCC4)nc3cc2c1 | -36.3 |
| COc1ccc(-c2nc(CN3CCN(c4ncnc5ccccc45)CC3)c(C)o2)c(OC)c1 | -66.8 |
| COc1cccc(NC(=O)C(c2ccccc2)N2CCN(c3ccccn3)CC2)c1 (centres unmarked) | 16.6 |
| C=CCn1c(SCC(=O)Nc2ccccc2C)nc2sc(C)c(C)c2c1=O | 6.01 |
| O=C(CNC(=O)c1ccc(Br)cc1)NCC(=O)OCc1ccc(Cl)cc1 | 8.42 |
| COCc1cc(=O)n2[nH]c(C(F)(F)F)nc2n1 | 10.4 |
| c1ccc(CCNc2nc(-c3ccncc3)cs2)cc1 | 4.56 |
